{
  "source": "paper PMC4336329",
  "about": "(PLoS ONE, 2015)",
  "note": "In all, about 310,000 compounds went through this assay and about 2,200 (0.71%) showed an effect of 50% or more. Effects have a minus sign here. This is one part of the list.",
  "data": [
    {"molecular_target": "human ether-à-go-go-related gene (hERG) potassium channel (human, UniProt Q12809)", "sequence (Q12809 whole entry, looked up)": "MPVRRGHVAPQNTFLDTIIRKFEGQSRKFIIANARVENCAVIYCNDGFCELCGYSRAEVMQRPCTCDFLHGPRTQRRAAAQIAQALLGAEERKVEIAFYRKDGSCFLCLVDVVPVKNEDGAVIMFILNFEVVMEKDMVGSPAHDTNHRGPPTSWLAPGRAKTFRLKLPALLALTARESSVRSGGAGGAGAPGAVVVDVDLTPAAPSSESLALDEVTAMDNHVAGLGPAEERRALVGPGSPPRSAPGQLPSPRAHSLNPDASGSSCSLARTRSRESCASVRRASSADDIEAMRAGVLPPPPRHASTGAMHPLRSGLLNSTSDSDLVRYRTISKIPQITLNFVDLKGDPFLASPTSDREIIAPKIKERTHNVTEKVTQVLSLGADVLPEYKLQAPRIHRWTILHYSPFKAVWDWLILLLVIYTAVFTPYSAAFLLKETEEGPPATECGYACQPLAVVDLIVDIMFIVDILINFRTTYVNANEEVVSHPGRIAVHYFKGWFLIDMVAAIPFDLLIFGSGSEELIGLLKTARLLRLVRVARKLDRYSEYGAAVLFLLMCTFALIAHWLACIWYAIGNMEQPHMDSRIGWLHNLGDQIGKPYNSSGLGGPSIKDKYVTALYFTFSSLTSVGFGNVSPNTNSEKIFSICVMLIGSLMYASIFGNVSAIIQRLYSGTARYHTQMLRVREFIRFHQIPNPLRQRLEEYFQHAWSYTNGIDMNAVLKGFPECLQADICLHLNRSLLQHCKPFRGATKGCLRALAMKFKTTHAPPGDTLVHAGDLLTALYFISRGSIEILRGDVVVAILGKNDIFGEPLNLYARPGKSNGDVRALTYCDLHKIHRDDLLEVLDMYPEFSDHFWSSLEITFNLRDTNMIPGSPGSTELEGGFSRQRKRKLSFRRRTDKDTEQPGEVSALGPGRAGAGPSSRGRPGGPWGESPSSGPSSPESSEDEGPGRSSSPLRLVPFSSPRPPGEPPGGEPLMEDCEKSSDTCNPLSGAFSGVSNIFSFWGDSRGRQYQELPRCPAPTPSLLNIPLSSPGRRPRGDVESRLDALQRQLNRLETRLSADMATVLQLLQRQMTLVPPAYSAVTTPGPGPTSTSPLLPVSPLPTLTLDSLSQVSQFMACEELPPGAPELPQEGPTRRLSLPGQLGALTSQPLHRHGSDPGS", "assay": "primary screen, population patch clamp on CHO cells stably expressing hERG", "units": {"hERG current change (%, negative = inhibition) at 1uM": "%"}, "values": [
      {"smiles": "COc1cc(C(=O)N2CCC3(CC2)NCCc2[nH]cnc23)cc(OC)c1OC", "hERG current change (%, negative = inhibition) at 1uM": 14.6},
      {"smiles": "CC#CCN1c2ccccc2[C@]23C[C@@H](C(=O)OC)N(C(=O)OCC)C2=NC(C(=O)OC)=C(C(=O)OC)[C@H]13", "hERG current change (%, negative = inhibition) at 1uM": 14.6},
      {"smiles": "CCOc1ccc(NS(=O)(=O)c2ccc(C(=O)N3CC(C)OC(C)C3)cc2)cc1", "note": "(stereo not shown)", "hERG current change (%, negative = inhibition) at 1uM": 10.4},
      {"smiles": "CC(=O)N(Cc1cccnc1)Cc1cc2ccccc2[nH]c1=O", "hERG current change (%, negative = inhibition) at 1uM": 8.07},
      {"smiles": "COc1ccc(C(=O)N2CCN(S(=O)(=O)c3ccc(F)cc3)CC2)cc1OC", "hERG current change (%, negative = inhibition) at 1uM": 13.6},
      {"smiles": "COCCN(C(=O)c1ccccc1OC1CCN(S(C)(=O)=O)CC1)C(C)C", "hERG current change (%, negative = inhibition) at 1uM": 15.6},
      {"smiles": "Clc1ccc(-c2cc3ccccc3nc2N2CCCC2)cc1", "hERG current change (%, negative = inhibition) at 1uM": 5.64},
      {"smiles": "CN(Cc1ccccc1)C(=O)COC(=O)c1ccc2c(c1)OCO2", "hERG current change (%, negative = inhibition) at 1uM": 7.97},
      {"smiles": "CCCCCCCC/C=C\\CCCCCCCC(=O)NCCO", "hERG current change (%, negative = inhibition) at 1uM": 17.9},
      {"smiles": "O=S(=O)(Cc1ccccc1)Cc1cnc(Cl)s1", "hERG current change (%, negative = inhibition) at 1uM": 8.35},
      {"smiles": "Cc1ccc(CNC(=O)CSCc2ccccc2)cc1", "hERG current change (%, negative = inhibition) at 1uM": 24.3},
      {"smiles": "Br.C=CCn1c(C)csc1=Nc1ccccc1C", "hERG current change (%, negative = inhibition) at 1uM": 8.43},
      {"smiles": "COc1ccccc1-n1c(O)c(C=NCCCn2ccnc2)c(=O)[nH]c1=O", "hERG current change (%, negative = inhibition) at 1uM": 14.8},
      {"smiles": "CCOC(=O)N1CCN(S(=O)(=O)c2ccc(C)cc2)C1", "hERG current change (%, negative = inhibition) at 1uM": 11.9},
      {"smiles": "Cc1ccc(OCc2nnc(SC(C)C(=O)O)n2Cc2ccccc2)cc1", "note": "(stereo not shown)", "hERG current change (%, negative = inhibition) at 1uM": 12},
      {"smiles": "CCNC(=O)COC(=O)C1CCC(=O)N(c2ccc(OC)cc2)C1c1ccc(OC)cc1", "note": "(stereo not shown)", "hERG current change (%, negative = inhibition) at 1uM": -6.28},
      {"smiles": "CC(=O)NC(CCS(C)(=O)=O)C(=O)Nc1cccc(Cl)c1Cl", "note": "(stereo not shown)", "hERG current change (%, negative = inhibition) at 1uM": 19.7},
      {"smiles": "O=C(Nc1ccc(S(=O)(=O)N2CCOCC2)cc1)c1ccc2ncsc2c1", "hERG current change (%, negative = inhibition) at 1uM": 4.89},
      {"smiles": "COc1ccc(-c2cc(-c3n[nH]c(=S)n3-c3cccc4ccccc34)[nH]n2)cc1", "hERG current change (%, negative = inhibition) at 1uM": 8.02},
      {"smiles": "CCCN1CCC(NC(=O)Nc2ccc(F)cc2F)CC1", "hERG current change (%, negative = inhibition) at 1uM": 17.3},
      {"smiles": "COc1ccc(C2=NS(=O)(=O)N(C)C(C(=O)Nc3ccc(C(C)=O)cc3)=C2)cc1OC", "hERG current change (%, negative = inhibition) at 1uM": 12.4},
      {"smiles": "CCN1CCN(c2ccc(S(=O)(=O)N3CCCCC3)cc2NC(=O)c2sccc2C)CC1", "hERG current change (%, negative = inhibition) at 1uM": -25.8},
      {"smiles": "COc1cc(C(=O)OCc2ccc(C)cc2)cc(NC(=O)c2cccs2)c1OC", "hERG current change (%, negative = inhibition) at 1uM": 9.66},
      {"smiles": "O=c1[nH]c(O)c(C=Nc2cccc(F)c2)c(=O)[nH]1", "hERG current change (%, negative = inhibition) at 1uM": 14},
      {"smiles": "Cc1ccc(N2C(=O)c3ccccc3C2C(=O)c2ccc(O)cc2O)cc1", "note": "(stereo not shown)", "hERG current change (%, negative = inhibition) at 1uM": -8.41}
    ]}
  ]
}
